# Measurements: PubChem BioAssay AID1345083 (National Center for Advancing Translational Sciences (NCATS), 2018)
# Screen size: about 94,000 compounds; about 6,200 (6.6%) were called active. Inconclusive means that the source gave no clear call. Such entries were picked first, then a sample of the others. Calls come from the whole dose curve; as a rule, active = well fitted inhibition curve with a large enough effect; inconclusive = small, poorly fitted or top-dose-only effect; inactive = flat fitted curve, though single readings scatter. Potencies beside an inconclusive call are fits to weak or partial responses and may not hold up.
# Test: Cytotoxic Profiling in HEK 293 Cell Line of Diverse Libraries Using Quantitative High-Throughput Screening; note: nearly all actives have a fitted effect of over 60% in size
# Settings: HEK 293 viability, ATP luminescence (CellTiter-Glo), 48-72 h; series mostly up to 115 µM
# In short: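 ATP-coupled CellTiter-Glo luminescence served as viability read-out, recorded 10 min after reagent addition at room temperature. HEK 293 cells, 250 cells/well, had been incubated with pintool-transferred compound for 48 or 72 hr at 37 degree Celsius.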
# Potency is the fitted concentration of half-maximal effect; tags give direction and shape of the fitted curve.
row,Compound,Potency
1,CCNC(=O)Cc1ccc(N(Cc2cccc(F)c2)C(=O)c2ccco2)cc1,"inconclusive: 89.1 µM [inhibitor, single point]"
2,COc1cccc(CN2CCc3c(cc(C(=O)Nc4cc(OC)cc(OC)c4)n3C)C2)c1,"inconclusive: 89.1 µM [inhibitor, single point]"
3,O=C(Nc1ccc(F)cc1)c1nc2sccn2c1-c1cccnc1,inactive
4,CN1CCN(Cc2ccc(Nc3cnc4ccc(-n5ccnc5)nn34)cc2)CC1,active: 50.1 µM
5,O=C(N[C@H]1CCN2C(=O)[C@@H](Cc3c[nH]c4ccccc34)NC(=O)[C@H]12)c1cnccn1,inactive
6,Cn1ncc2c(C(=O)NCc3cccc(F)c3)cc(-c3ccccc3F)nc21,active: 44.7 µM
7,O=C1OC2(CN1CC1CCOCC1)CN(c1ccccc1-c1ccccc1)C2,"inconclusive: 100 µM [inhibitor, partial curve]"
8,CCOc1ccccc1C(=O)N1CCC(Cc2nc(-c3ccccc3)no2)CC1,"inconclusive: 25.1 µM [inhibitor, partial curve, poor fit]"
9,Cn1nc(C2CCCC2)cc1NC(=O)c1ccc(C(F)(F)F)cc1,"inconclusive: 79.4 µM [inhibitor, partial curve, poor fit]"
10,COc1ccc(NC(=O)c2cc3n(n2)CC(c2ccc(Cl)cc2)OC3)c(OC)c1 (stereo unspecified),"inconclusive: 22.4 µM [inhibitor, partial curve, poor fit]"
11,CC1CCN(CCCNC(=O)C2CCCN(S(=O)(=O)c3cn(C)cn3)CCC(=O)NCC2)CC1 (stereo unspecified),inactive
12,O=C(c1ccccc1Cl)N1CCN(c2nccc(Nc3ccccc3Cl)n2)CC1,active: 44.7 µM
13,Cn1ccc(NC(=O)C2(C)CCCc3cnc(Nc4ccccc4)nc32)n1 (stereo unspecified),"inconclusive: 100 µM [inhibitor, partial curve, poor fit]"
14,COc1ccc(-c2cc(C(=O)NCc3ccc(F)cc3)c3cnn(C)c3n2)cc1,"inconclusive: 50.1 µM [inhibitor, partial curve, poor fit]"
15,N#Cc1ccc(CN2CC(Oc3ccc(F)cc3F)C2)cc1,"inconclusive: 112 µM [inhibitor, partial curve]"
16,COCCN1C(=O)c2ccccc2C(C(=O)Nc2cccc(C)n2)C12CCCC2 (stereo unspecified),"inconclusive: 56.2 µM [inhibitor, partial curve]"
17,CCOC(=O)[C@@H]1[C@@H](OC)C(=O)N(C(C)C)C12CCN(C(=O)c1cc3ccccc3s1)CC2,"inconclusive: 79.4 µM [inhibitor, partial curve]"
18,O=C(O)CO[C@@H]1COCC[C@H]1NC(=O)C1(CO)CC1,inactive
19,Cc1cc(C(F)(F)F)nn1CC(=O)NCC1Cn2cccc2C(=O)N1CC(C)C (stereo unspecified),inactive
20,COC(=O)c1ccc2nc(CO[C@H]3CN(Cc4cn(C)c5ccccc45)C[C@H]3F)[nH]c2c1,"inconclusive: 79.4 µM [inhibitor, partial curve, poor fit]"
21,O[C@H]1CC[C@@H](Cc2cc(-c3ccccc3)on2)O[C@@H]1CNC1CCCCC1,active: 100 µM
22,Cc1cc(C)cc(-c2ccc(CN3CCCC3C(=O)NCCc3ccccc3)cc2)c1 (stereo unspecified),active: 39.8 µM

row,Compound,Potency
1,Cc1cc2nc3n(c(=O)c2n1CC(=O)Nc1cccc(Br)c1)CCCCC3,"inconclusive: 44.7 µM [inhibitor, partial curve, poor fit]"
2,Cc1cc(CN2CCC3(CC2)CCN(Cc2cscn2)CC3CO)on1 (stereo unspecified),inactive
3,Cc1cc(C)c(CNC(=O)c2cc(-c3ccc(CO)cc3)cc3c2OCCN3C)c(=O)[nH]1,active: 89.1 µM
4,Cc1noc(-c2ccc3c(c2)OCO3)c1C(=O)N1CCC(Cc2ccc(F)cc2)CC1,active: 28.2 µM
5,CS(=O)(=O)N1CC(n2cc(C(=O)NCC3CC3)nn2)C1,inactive
6,Cc1c(C(=O)N2CCCC(CCc3ccc(F)cc3)C2)cnc2cc(=O)[nH]n12 (stereo unspecified),"inconclusive: 89.1 µM [inhibitor, single point]"
7,COCCn1c(CO)nnc1C1CC(NC(=O)c2c(C)noc2C)C1 (stereo unspecified),inactive
8,O=C(C1CCCC1)N1Cc2ccccc2CC2(CCCCN2CC2CCNCC2)C1 (stereo unspecified),active: 25.1 µM
9,O=c1c2c(CO)c(-c3ccc(F)cc3)nn2ccn1Cc1cc(F)ccc1F,"inconclusive: 28.2 µM [inhibitor, full curve, poor fit]"
10,COCCCNC(=O)c1cc(-c2ccc(F)cc2)nc2c1cnn2C,"inconclusive: 50.1 µM [inhibitor, partial curve, poor fit]"
11,COc1cccc(N2C(=O)OCC23CCN(Cc2cccc(F)c2)C3)c1 (stereo unspecified),"inconclusive: 100 µM [inhibitor, partial curve, poor fit]"
12,CC(C)c1noc(C2CCN(C(=O)Cn3ccc4ccccc4c3=O)CC2)n1,"inconclusive: 89.1 µM [inhibitor, partial curve, poor fit]"
13,O=C([C@@H]1C[C@H](Oc2ccccc2)CN1C(=O)NC1CCCCC1)N1CCOCC1,inactive
14,Cc1nc(CN2CCN(CC3(O)CCNC3)CC2)cs1 (stereo unspecified),inactive
15,CCc1noc(-c2cn(C3CCN(C(=O)c4cccc(F)c4)C3)nn2)n1 (stereo unspecified),"inconclusive: 25.1 µM [inhibitor, full curve]"
16,CN(C)C(=O)c1cccnc1OC1CCN(S(=O)(=O)Cc2cccc(Cl)c2)C1 (stereo unspecified),"inconclusive: 89.1 µM [inhibitor, single point]"
17,CCOC(=O)C1CCN(C(=O)C2CCc3nnc(C4CCN(C(C)=O)CC4)n32)CC1 (stereo unspecified),inactive
18,COC(=O)C1=C(C)N(Cc2cccc(Cl)c2)C(=O)CC1c1ccccc1Cl (stereo unspecified),"inconclusive: 44.7 µM [inhibitor, partial curve, poor fit]"
19,CC(Oc1cccc(Cl)c1)C(=O)Nc1ccc2c(N3CCOCC3)ncnc2c1 (stereo unspecified),active: 44.7 µM
20,Cc1ccsc1C(=O)NCCc1noc(C2CC2)n1,inactive
21,O=C1N(CCc2ccccc2)CCOC12CCN(Cc1ccc3c(c1)CCO3)CC2,"inconclusive: 100 µM [inhibitor, partial curve]"
22,Cc1nn(-c2ccccc2)c2c1C(C1CC1)N(C1CCN(C(=O)C3CC3)C1)C2=O (stereo unspecified),"inconclusive: 56.2 µM [inhibitor, partial curve, poor fit]"

row,Compound,Potency
1,COC(=O)[C@@H]1Cc2c([nH]c3ccccc23)[C@H]2C[C@@H](NCc3ccccc3)C[C@@H](c3ccccc3F)N21,active: 25.1 µM
2,COC(=O)CC[C@H]1CNC(=O)[C@@H]2[C@@H](CCN2Cc2ccc(C(F)(F)F)cc2)N1C,"inconclusive: 112 µM [inhibitor, partial curve, poor fit]"
3,COc1ccc(C2(C(=O)NC3CCCN(c4ncccn4)C3)CC2)cc1 (stereo unspecified),"inconclusive: 89.1 µM [inhibitor, single point]"
4,COc1cccc([S+](=O)([O-])N2CCN(C(=O)c3nc4cccnc4n(C4CC4)c3=O)CC2)c1,inactive
5,Cc1csc(Nc2ccc3c(n2)CN(Cc2ccc(F)cc2)C(=O)CO3)n1,active: 8.91 µM
6,Cc1ccc(C(=O)NC2CCCN(c3cc(-c4ccc(F)cc4)[nH]n3)C2)cc1 (stereo unspecified),"inconclusive: 50.1 µM [inhibitor, partial curve, poor fit]"
7,COc1cc(OC)cc(OCc2nnc(C(=O)N3CCC[C@@H]3C)n2-c2ccccc2)c1,"inconclusive: 100 µM [inhibitor, partial curve, poor fit]"
8,CN1CCC(Cc2ccc(C(=O)O)cc2)CC1,inactive
9,CN(C)C(=O)c1ccc(-c2cc3c(cn2)CN(CCc2ccccc2)CCN3)cc1,"inconclusive: 100 µM [inhibitor, partial curve]"
10,COc1cccc(CN2CCC3(CC2)NCCc2c3[nH]c3ccccc23)c1,active: 31.6 µM
11,Cc1cccc(OCCc2noc(C3CCN(C(=O)c4n[nH]c(=O)c5ccccc45)C3)n2)c1 (stereo unspecified),"inconclusive: 50.1 µM [inhibitor, partial curve, poor fit]"
12,CCNC(=O)CCc1c(CC)nn(-c2ccc(OC)cc2)c1Oc1cccc(F)c1,"inconclusive: 50.1 µM [inhibitor, partial curve, poor fit]"
13,Cc1ccc(C)c(C(=O)N2CCN(c3cc(-c4ccccc4)[nH]n3)CC2)c1,"inconclusive: 50.1 µM [inhibitor, partial curve, poor fit]"
14,COc1ccc(-c2ccc3c(n2)CN(CCOc2ccccc2)C(=O)CO3)cc1F,active: 79.4 µM
15,CCc1ccccc1S(=O)(=O)N1CCN(C2CCN(CCC(C)C)C2=O)CC1 (stereo unspecified),"inconclusive: 50.1 µM [inhibitor, partial curve, poor fit]"
16,COc1ccccc1NC(=O)Cn1c(N(C)Cc2ccccc2)nc(C)cc1=O,"inconclusive: 50.1 µM [inhibitor, partial curve, poor fit]"
17,COc1ccc(N2CCN(C(=O)C3(CCO)CC34CCOCC4)CC2)cc1 (stereo unspecified),inactive
18,CC1(c2ccccc2)N(Cc2ccc(O)cc2)C(=O)OC12CCN(Cc1c[nH]c3ccccc13)CC2 (stereo unspecified),"inconclusive: 20 µM [inhibitor, full curve, poor fit]"
19,CS(=O)(=O)c1ccc(O[C@H]2COCCN(c3nc4ccccc4s3)C2)cc1,"inconclusive: 31.6 µM [inhibitor, partial curve, poor fit]"
20,O=C(c1n[nH]c2ccccc12)N1CC(Oc2ccccc2-c2nc(-c3ccccc3)no2)C1,inactive
21,O=C(c1noc(-c2ccc(F)cc2)n1)N1CCN(c2ccccc2F)CC1,"inconclusive: 89.1 µM [inhibitor, single point]"
22,CN(Cc1cccc(F)c1)Cc1cccc(C(F)(F)F)c1,inactive
